# Reference: PubChem BioAssay (NCATS)
# This list was built around the results that the source calls inconclusive (neither active nor inactive); the mix of calls is not that of the screen. Where the call is inconclusive, the potency comes from a doubtful curve fit. Activity calls are given as the source filed them. Calls follow the shape of the dose curve; as a rule, active = well fitted inhibition curve with a large enough effect; inconclusive = small, poorly fitted or top-dose-only effect; inactive = flat fitted curve, though single readings scatter.
# Test system: KB-3-1
# Experiment: Cytotoxic Profiling of Annotated Libraries Using Quantitative High-Throughput Screening (AID 1296008); also: nearly all actives have a fitted effect of over 60% in size
# Conditions: Five cell lines viability, CellTiter-Glo ATP luminescence, 48-72 h; max response: hits give low values
# Summary of the method: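 Cells exposed to compounds for 48 or 72 hr at 37 degrees Celsius. Viability read as ATP-coupled luminescence with CellTiter-Glo after 10 min at room temperature.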
# Potency is read from the fitted curve at half-maximal effect; tags tell the direction and shape of the fitted curve.
Compound,Potency,outcome
COc1cccc(-c2cc(F)ccc2C2Cc3nc(N)nc(C)c3C(=O)N2)n1 (centres undefined),"inconclusive: 0.0259 µM [inhibitor, full curve]",–
CN1CCN(c2ccc(OC(F)(F)F)c(Nc3ncc4c(n3)-c3c(c(C(N)=O)nn3CCO)CC4)c2)CC1,active: 0.0366 µM,–
CCNC(=O)c1noc(-c2cc(Cl)c(O)cc2O)c1-c1ccc(OC)cc1,"inconclusive: 0.13 µM [inhibitor, full curve]",–
O=C(Nc1ccc(Cl)cc1F)c1ccccc1O,active: 13 µM,–
C[C@@H](N[C@H]1CCCC[C@@H]1NC(=O)c1ccc(Cl)cc1)c1cccc2ccccc12,"inconclusive: 18.4 µM [inhibitor, single point]",–
CN1CCN(Cc2ccc(NC(=O)Cc3ccc(Oc4cc(NC(=O)C5CC5)ncn4)cc3)cc2C(F)(F)F)CC1,"inconclusive: 5.17 µM [inhibitor, full curve, poor fit]",–
CCN(CC)CCN(Cc1ccc(-c2ccc(C(F)(F)F)cc2)cc1)C(=O)Cn1c(SCc2ccc(F)cc2)nc(=O)c2c1CCC2,active: 20.6 µM,–
N#Cc1cc(-c2ccnc(Nc3ccc(N4CCOCC4)cc3)n2)ccc1OC1CCOCC1,"inconclusive: 29.1 µM [inhibitor, single point]",–
C[C@H](NC(=O)C(C)(C)Oc1ccc(C(F)(F)F)cn1)[C@@H](Cc1ccc(Cl)cc1)c1cccc(C#N)c1,"inconclusive: 29.1 µM [inhibitor, single point]",–
COc1cc([C@H]2O[C@H](c3cc(OC)c4c(c3)OCO4)[C@H](C)[C@H]2C)cc(OC)c1OC,"inconclusive: 0.796 µM [inhibitor, full curve]",–
C#Cc1cccc(Nc2nc3cc(C(=O)O)ccc3c3cncnc23)c1,"inconclusive: 29.1 µM [inhibitor, single point]",–
CC(C)CCNC(=O)c1ccc2c(c1)nc(Nc1n[nH]c3ccc(-c4ccccc4OC(F)(F)F)cc13)n2C1CCC(O)CC1 (centres undefined),"inconclusive: 23.1 µM [inhibitor, partial curve, poor fit]",–
CC(=O)Nc1ccc(NC(=S)NC(=O)c2ccc(C(C)(C)C)cc2)cc1,"inconclusive: 14.6 µM [inhibitor, partial curve]",–
COCCOCCOc1ccc(C2=N[C@@](C)(C(=O)O)CS2)c(O)c1,"inconclusive: 23.1 µM [inhibitor, single point]",–
C=C(C(=O)O)C1CC2=C(C)C(=O)CC2C(C)CC1O (centres undefined),"inconclusive: 18.4 µM [inhibitor, single point]",–
COc1cc(C[C@H]2C(=O)OC[C@@H]2Cc2ccc(OC)c(OC)c2)ccc1O,"inconclusive: 1.14 µM [inhibitor, full curve]",–
N#CC(CCCN1CCC(O)(c2ccc(Cl)cc2)CC1)(c1ccccc1)c1ccccc1,"inconclusive: 23.1 µM [inhibitor, single point]",–
C=C1C(=O)OC2C(OC(=O)C=C(C)C)C(C)=C3C(=O)C=C(C)C3C(O)C12 (centres undefined),"inconclusive: 14.3 µM [inhibitor, single point]",–
O=C(Nc1ccc(-c2ccnc(Nc3ccc(N4CCOCC4)cc3)n2)cc1)C1CCCN1 (centres undefined),"inconclusive: 29.1 µM [inhibitor, single point]",–
CC1(C)C2CC(OC3OC(COC4OCC(O)(CO)C4O)C(O)C(O)C3O)C1(C)CC2O (centres undefined),–,inactive

Compound,Potency,outcome
CCN1CCN(Cc2ccc(NC(=O)c3ccc(C)c(Oc4ccnc5[nH]ccc45)c3)cc2C(F)(F)F)CC1,"inconclusive: 20.2 µM [inhibitor, single point]",–
C=CC(=O)N1CCC(Oc2cc3c(Nc4ccc(Cl)c(Cl)c4F)ncnc3cc2OC)CC1,"inconclusive: 23.1 µM [inhibitor, single point]",–
NC(=O)c1ccccc1Nc1ccnc(Nc2cccc(O)c2)n1,active: 8.2 µM,–
O=C(Nc1nc2cc(C(F)(F)F)cc(NC3CC3)n2n1)c1cccnc1,active: 5.8 µM,–
CC(C)(O)C1CC(=O)C2(C)C(CCC3(C)C(c4ccoc4)OC(=O)C4OC432)C12CCC(=O)OC2 (centres undefined),"inconclusive: 8.93 µM [inhibitor, partial curve, poor fit]",–
CC(=O)OC[C@H]1O[C@@H](n2ncc(=O)[nH]c2=O)[C@H](OC(C)=O)[C@@H]1OC(C)=O,"inconclusive: 29.1 µM [inhibitor, single point]",–
CC(=O)C1=C(O)C2c3c[nH]c4cccc(c34)CC2C(C)(C)N(C)C1=O (centres undefined),"inconclusive: 18.4 µM [inhibitor, single point]",–
CCCCCCCCC(=O)N[C@H](CN1CCCC1)[C@H](O)c1ccc2c(c1)OCCO2,"inconclusive: 18.4 µM [inhibitor, single point]",–
CCOC(=O)c1cccc(CNc2ccc(N(C)C(=O)Nc3ccccc3)cc2)c1,"inconclusive: 1.84 µM [inhibitor, full curve]",–
Cc1noc(C)c1-c1cc(O)cc(C(O)c2ccccc2)c1 (centres undefined),"inconclusive: 16.4 µM [inhibitor, partial curve, poor fit]",–
C=CC(=O)N1CCN(C(=O)CNc2cc(-c3ccccc3Cl)c(Cl)cc2OC)CC1,"inconclusive: 23.1 µM [inhibitor, single point]",–
CC(C)(C)Nc1nc(Nc2ccc(C(N)=O)cc2)cc(N)c1C#N,active: 5.8 µM,–
O=C(NCc1ccc(Oc2ccccc2)cc1)c1nc(-c2cc(Br)c(O)c(Br)c2)no1,"inconclusive: 20.6 µM [inhibitor, single point]",–
CC(=O)N1CCN(CCOc2ccc(C3CCN(C4=Nn5c(nnc5C(F)(F)F)CC4)CC3)cc2)CC1,"inconclusive: 18.4 µM [inhibitor, single point]",–
C=CC(=O)N1CCN(C(=O)CNc2cc(I)c(Cl)cc2O)CC1,active: 20.6 µM,–
C#CCN(Cc1cc2c(=O)[nH]c(C)nc2cc1Br)c1ccc(C(=O)NCc2cccnc2)cc1,active: 0.0052 µM,–
COc1ccc2nc(-c3cc(OC)c(OC)c(OC)c3)cc(C(=O)NCC(=O)Nc3ccc(C(C)=O)cc3)c2c1,"inconclusive: 18.4 µM [inhibitor, partial curve, poor fit]",–
COc1cc(-c2cc(-c3cccc(O)c3)cnc2N)cc(OC)c1OC,"inconclusive: 25.9 µM [inhibitor, single point]",–
Cc1cc(N(C)C)ccc1-c1nc2ccc(-c3nc4ccc(N5CCN(C)CC5)cc4[nH]3)cc2[nH]1,active: 23.1 µM,–
